B1: GPR68, Q15743 (parent)
chain: MGNITADNSSMSCTIDHTIHQTLAPVVYVTVLVVGFPANCLSLYFGYLQIKARNELGVYLCNLTVADLFYICSLPFWLQYVLQHDNWSHGDLSCQVCGILLYENIYISVGFLCCISVDRYLAVAHPFRFHQFRTLKAAVGVSVVIWAKELLTSIYFLMHEEVIEDENQHRVCFEHYPIQAWQRAINYYRFLVGFLFPICLLLASYQGILRAVRRSHGTQKSRKDQIQRLVLSTVVIFLACFLPYHVLLLVRSVWEASCDFAKGVFNAYHFSLLLTSFNCVADPVLYCFVSETTHRDLARLRGACLAFLTCSRTGRAREAYPLGAPEASGKSGAQGEEPELLTKLHPAFQTPNSPGSGGFPTGRLA

The least precise scores are not listed. Not listed are two conditions whose scores span a narrow range. Names with del lack the residues named; names with ins carry added residues between the positions named. For part of these data: How much ogerin was present is not stated here.

Variants of B1 are the subject of data set [1]. The experiment in a line: cAMP reporter score (Enrich2 score, wild type = 0); higher = more signal; HEK293T, FACS bins.
In data set [2] the parent is B1. Put plainly: surface expression score (Enrich2 score, wild type = 0); higher = more signal; HEK293T, FACS bins.

Consider T18D, for which the cAMP reporter score was -0.445 in data set [1] (pH 6) and 0.137 in data set [1] (pH 6, modulator: ogerin). In data set [2], the surface expression score was -0.448.

As to G362_R363insGS, the cAMP reporter score in data set [1] (pH 5.5) came to 0.975; in data set [1] (pH 6, modulator: ogerin) it was 0.387; in data set [1] (pH 6.5, modulator: ogerin) it was 2.45. In data set [2], the surface expression score stood at 0.751.

With V27_Y28insGSG, the cAMP reporter score in data set [1] (pH 6) is -0.595; in data set [1] (pH 6, modulator: ogerin) it was -1.35; in data set [1] (pH 6.5, modulator: ogerin) it was -1.64. In addition, in data set [2], the surface expression score is -1.91.

For P360_G362del, the cAMP reporter score in data set [1] (pH 5.5) was found to be 0.475; in data set [1] (pH 6, modulator: ogerin) it was 1.1; in data set [1] (pH 6.5, modulator: ogerin), 0.629. Besides, in data set [2], the surface expression score is 0.595.

For F359N, the cAMP reporter score turned out to be 1.23 in data set [1] (pH 5.5); 0.792 in data set [1] (pH 6, modulator: ogerin); 1.15 in data set [1] (pH 6.5, modulator: ogerin). For the same variant, in data set [2], the surface expression score was 2.79.

For the variant F359I, the cAMP reporter score was 0.505 in data set [1] (pH 5.5); 0.606 in data set [1] (pH 6); 1.29 in data set [1] (pH 6, modulator: ogerin); -0.062 in data set [1] (pH 6.5, modulator: ogerin). In addition, the surface expression score in data set [2] worked out at 0.076.

As to F359Y, the cAMP reporter score was -0.604 in data set [1] (pH 5.5); 1.44 in data set [1] (pH 6); -0.564 in data set [1] (pH 6, modulator: ogerin).

For the variant F359A, the cAMP reporter score in data set [1] (pH 5.5) was -0.752; in data set [1] (pH 6), 0.082; in data set [1] (pH 6, modulator: ogerin), -0.704; in data set [1] (pH 6.5, modulator: ogerin), -0.566. In addition, the surface expression score in data set [2] was -0.55.

On to F359Q, for which the cAMP reporter score came out at 0.244 in data set [1] (pH 5.5); 0.8 in data set [1] (pH 6); 0.365 in data set [1] (pH 6, modulator: ogerin); 0.621 in data set [1] (pH 6.5, modulator: ogerin). Besides, the surface expression score in data set [2] worked out at 0.601.

F359R: the cAMP reporter score in data set [1] (pH 5.5) was determined as 0.939; in data set [1] (pH 6) it was 0.738; in data set [1] (pH 6, modulator: ogerin) it was 0.993; in data set [1] (pH 6.5, modulator: ogerin) it was 0.607. In addition, the surface expression score in data set [2] turned out to be 0.748.

As for F359P, the cAMP reporter score in data set [1] (pH 5.5) is 1.51; in data set [1] (pH 6), 1.18; in data set [1] (pH 6, modulator: ogerin) it was 1.55; in data set [1] (pH 6.5, modulator: ogerin), 1.77. The surface expression score in data set [2] is 1.06.

On to F359E, for which the cAMP reporter score in data set [1] (pH 5.5) was 0.001; in data set [1] (pH 6), 0.158; in data set [1] (pH 6, modulator: ogerin), -0.067; in data set [1] (pH 6.5, modulator: ogerin), -0.111. The surface expression score in data set [2] was 0.031.

Consider F359D, for which the cAMP reporter score in data set [1] (pH 5.5) was -0.022; in data set [1] (pH 6), 0.876; in data set [1] (pH 6, modulator: ogerin), 0.41; in data set [1] (pH 6.5, modulator: ogerin) it was 0.862. Besides, in data set [2], the surface expression score is 0.17.

As to F359T, the cAMP reporter score in data set [1] (pH 5.5) was found to be 0.497; in data set [1] (pH 6, modulator: ogerin) it was 0.723; in data set [1] (pH 6.5, modulator: ogerin), 0.318. Further, in data set [2], the surface expression score was found to be 0.448.

As for F359W, the cAMP reporter score in data set [1] (pH 5.5) was 0.311; in data set [1] (pH 6), -0.3; in data set [1] (pH 6, modulator: ogerin) it was 0.118; in data set [1] (pH 6.5, modulator: ogerin), 0.028. In addition, the surface expression score in data set [2] was -0.192.

For the variant F359M, the cAMP reporter score was -0.276 in data set [1] (pH 5.5); 0.289 in data set [1] (pH 6); -0.734 in data set [1] (pH 6, modulator: ogerin); -0.007 in data set [1] (pH 6.5, modulator: ogerin). Moreover, the surface expression score in data set [2] turned out to be 0.292.

For the variant F359L, the cAMP reporter score in data set [1] (pH 5.5) was 0.609; in data set [1] (pH 6), 1; in data set [1] (pH 6, modulator: ogerin) it was 0.944; in data set [1] (pH 6.5, modulator: ogerin), 1.12. In addition, the surface expression score in data set [2] was 1.42.

For F359G, the cAMP reporter score turned out to be 2.92 in data set [1] (pH 5.5); 2.36 in data set [1] (pH 6); 1.69 in data set [1] (pH 6, modulator: ogerin); 3.23 in data set [1] (pH 6.5, modulator: ogerin).

Consider F359S, for which the cAMP reporter score in data set [1] (pH 5.5) was determined as 1.05; in data set [1] (pH 6) it was 1.35; in data set [1] (pH 6, modulator: ogerin), 1.27; in data set [1] (pH 6.5, modulator: ogerin), 1.95. The surface expression score in data set [2] came to 1.05.

For F359H, the cAMP reporter score in data set [1] (pH 5.5) came to 0.278; in data set [1] (pH 6) it was 0.188; in data set [1] (pH 6, modulator: ogerin) it was 0.473; in data set [1] (pH 6.5, modulator: ogerin), 0.512. Moreover, the surface expression score in data set [2] stood at 0.597.

Turning to F359V, the cAMP reporter score in data set [1] (pH 5.5) came to 0.826; in data set [1] (pH 6, modulator: ogerin), 2.05. In addition, in data set [2], the surface expression score is 1.52.

For F359K, the cAMP reporter score in data set [1] (pH 5.5) turned out to be 0.052; in data set [1] (pH 6) it was 0.543; in data set [1] (pH 6, modulator: ogerin), 0.116; in data set [1] (pH 6.5, modulator: ogerin) it was 0.767. In addition, the surface expression score in data set [2] was -0.572.

C40R: the cAMP reporter score in data set [1] (pH 6) amounted to 0.001. The surface expression score in data set [2] is -3.03.

As to G355del, the cAMP reporter score in data set [1] (pH 5.5) worked out at 0.613; in data set [1] (pH 6, modulator: ogerin), 1.03; in data set [1] (pH 6.5, modulator: ogerin), 0.474. In addition, in data set [2], the surface expression score was -0.244.

For the variant S353E, the cAMP reporter score was 0.391 in data set [1] (pH 5.5); -0.147 in data set [1] (pH 6); 0.363 in data set [1] (pH 6, modulator: ogerin); 0.72 in data set [1] (pH 6.5, modulator: ogerin). Moreover, the surface expression score in data set [2] turned out to be 0.679.

Consider S353H, for which the cAMP reporter score in data set [1] (pH 5.5) worked out at 0.739; in data set [1] (pH 6), 0.753; in data set [1] (pH 6, modulator: ogerin), 0.16; in data set [1] (pH 6.5, modulator: ogerin), 1.03. Moreover, the surface expression score in data set [2] stood at 0.268.

Take S353K: the cAMP reporter score in data set [1] (pH 5.5) is -0.11; in data set [1] (pH 6) it was -0.879; in data set [1] (pH 6, modulator: ogerin) it was -0.258; in data set [1] (pH 6.5, modulator: ogerin), 0.44. The surface expression score in data set [2] was -0.411.

As to S353P, the cAMP reporter score was -0.728 in data set [1] (pH 5.5); -0.299 in data set [1] (pH 6); -0.639 in data set [1] (pH 6, modulator: ogerin); -0.304 in data set [1] (pH 6.5, modulator: ogerin). Moreover, in data set [2], the surface expression score is -0.453.

As to S353N, the cAMP reporter score was -0.191 in data set [1] (pH 5.5); 0.355 in data set [1] (pH 6, modulator: ogerin); 0.359 in data set [1] (pH 6.5, modulator: ogerin). The surface expression score in data set [2] is -0.373.

With S353V, the cAMP reporter score was determined as 1.22 in data set [1] (pH 5.5); 0.785 in data set [1] (pH 6); 0.279 in data set [1] (pH 6, modulator: ogerin); 1.33 in data set [1] (pH 6.5, modulator: ogerin). In addition, the surface expression score in data set [2] worked out at 0.254.

On to S353R, for which the cAMP reporter score was 0.373 in data set [1] (pH 5.5); -0.328 in data set [1] (pH 6); 0.399 in data set [1] (pH 6, modulator: ogerin); -0.212 in data set [1] (pH 6.5, modulator: ogerin). Besides, the surface expression score in data set [2] stood at 0.377.

As for S353W, the cAMP reporter score in data set [1] (pH 5.5) was 0.457; in data set [1] (pH 6), -0.843; in data set [1] (pH 6, modulator: ogerin), 0.411; in data set [1] (pH 6.5, modulator: ogerin) it was 0.299. Moreover, in data set [2], the surface expression score was 0.215.

Turning to S353G, the cAMP reporter score was -0.397 in data set [1] (pH 5.5) and 0.372 in data set [1] (pH 6, modulator: ogerin). The surface expression score in data set [2] came to 0.399.

Take S353M: the cAMP reporter score was 0.526 in data set [1] (pH 5.5); 1.01 in data set [1] (pH 6, modulator: ogerin); 1.07 in data set [1] (pH 6.5, modulator: ogerin). Also, in data set [2], the surface expression score came to 1.54.

For the origin of these results see the GPR68 mutational scans of Howard et al. (2025).
